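Growth conditions: 96-well plates. Treatment: test compound, 48 hours, 5 concentrations. Analysis: linear interpolation between bracketing concentrations; unreached endpoints set to highest concentration. The concentration for 50% growth inhibition is given as GI50. TGI denotes the concentration required for complete inhibition of growth.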
What follows are compounds tested on NCI-H322M lung (assay: growth of human tumour cells (NCI), 48 h).

| Structure (SMILES) | TGI | GI50 |
| --- | --- | --- |
| COc1cc(/C=C2\N=C(c3ccccc3)N(c3nc4cc(C)c(C)cc4s3)C2=O)cc(OC)c1OC | > 100 µM |  |
| O=C1N[C@H]2C(=O)c3c(Cl)sc(Cl)c3[C@H]2O1 | 25 µM |  |
| Cc1cc(Cl)ccc1NC(=O)C(=O)Cc1ccc([N+](=O)[O-])c([N+](=O)[O-])c1CC(=O)C(=O)Nc1ccc(Cl)cc1C | > 100 µM |  |
| CN(C)CCn1c(=O)oc2cc(C(=O)CN3CCOCC3)ccc21 | > 100 µM |  |
| CN(C)C(=S)/N=c1\ssc(=S)n1-c1ccccc1 | > 100 µM |  |
| COc1cccc2c1C(=O)c1c(O)c3c(c(O)c1C2=O)C[C@@](O)(C(=O)CO)C[C@@H]3OC1CC(OC(C)=O)C(OC(C)=O)C(C)O1 (some centres not stated) | 28.5 µM | 1.9 µM |
| COc1nc2c(cc1S(=O)(=O)c1ccccc1)CCc1c-2cnn1Cc1ccccc1 | > 100 µM | 11.8 µM |
| COc1cc(/C=C/C=C2\CCC/C(=C\C=C\c3ccc(O)c(OC)c3)C2=O)ccc1O | 37.3 µM |  |
| COc1cc(CNc2nc3cc(N)cc(N)c3nc2-c2ccccc2)cc(OC)c1OC | 16 µM | 3.04 µM |
| C[N+]1(C)CCOC(O)(c2ccccc2)C1 (configuration not stated) | > 100 µM |  |
| CC(OC1CC(=O)CC2C(=O)C=CC(=O)C12)c1ccccc1 (configuration not stated) | > 54 µM |  |
| O=S(=O)(O)c1cc(N=Nc2cc(S(=O)(=O)O)c3ccccc3c2O)ccc1/C=C/c1ccc(N=Nc2cc(S(=O)(=O)O)c3ccccc3c2O)cc1S(=O)(=O)O | > 1000 µM |  |
| O=C1N(CN2CCOCC2)CN(CN2CCOCC2)C(=O)N1Cc1ccc(-c2ccc(CN3C(=O)N(CN4CCOCC4)CN(CN4CCOCC4)C3=O)cc2)cc1 | 39.7 µM |  |
| Nc1ccc2ncc(Nc3ccc(F)cc3)nc2c1 | > 100 µM |  |
| C=C1C(=O)OC2/C=C(\C)C(=O)CC3OC(C)(C)OC3(C)CC(OC(=O)/C(C)=C/C)C12 (configuration not stated) | > 100 µM |  |
| CN(C)CCN1C(=O)c2cccc3c(N)ccc(c23)C1=O | > 25 µM | 14 µM |
| Cc1cc(S(=O)(=O)Nc2nc3ccccc3[nH]2)c(S)cc1Cl | > 100 µM |  |
| COc1cc([N+](=O)[O-])c(S(=O)(=O)O)cc1N | > 100 µM |  |
| COc1ccc2c(c1)CCC(CN1CCN(CCOC(c3ccc(F)cc3)c3ccc(F)cc3)CC1)C2O (configuration not stated) | 29 µM |  |
| O=C1OCC2=C1C(c1cccc(C(F)(F)F)c1)c1cc3c(cc1N2CCO)OCO3 (configuration not stated) | > 50 µM | 2.17 µM |
| CC(O)CCNC(=O)Nc1c(C(F)(F)F)cc(-c2ccccc2)[nH]c1=O (configuration not stated) | > 100 µM |  |
| Cc1ccc(/C=C/C(=O)C(C)C)cc1 | > 100 µM |  |
| CCCC(=O)OCC1(CO)C/C(=C/CC(C(C)C)C(C)C)C(=O)O1 (configuration not stated) | > 100 µM |  |
| c1ccc(CCCNc2nnnc3ccccc23)cc1 | > 100 µM |  |
| CCN(CC)C(=S)SC(=S)N(CC)CC | > 100 µM |  |
| CCOC(=O)NC(Nc1ccc(F)c(F)c1)(C(=O)OCC)C(F)(F)F (configuration not stated) | > 100 µM |  |

| Structure (SMILES) | TGI | GI50 |
| --- | --- | --- |
| COc1ccc(/C=N/NC(=O)c2ccccc2Nc2ccccc2C(=O)N/N=C/c2ccc(OC)cc2)cc1 | > 100 µM |  |
| O=C1c2ccccc2C(=O)c2c(NC(=O)C(Cl)CCl)cccc21 (configuration not stated) | 41.1 µM |  |
| COc1cc(-c2cc(-c3nc4cc(Cl)c(Cl)cc4[nH]3)[nH]n2)cc(OC)c1OC | 14.2 µM | 3.29 µM |
| NC1=NN(c2ccccc2)C(=O)C1/C(=N\NC(=O)c1cc2ccccc2cc1O)C(=O)Nc1nc([N+](=O)[O-])cs1 (configuration not stated) | > 100 µM |  |
| CC(C)[C@H]1CO[C@@H]2O[C@H](C)CC(=O)N21 | > 100 µM |  |
| CS(=O)(=O)N1CC(CCl)c2ccc(NCCN)cc21 (configuration not stated) | > 100 µM |  |
| CC(C)(O)/C=C\P(C)(=O)c1ccccc1 (configuration not stated) | > 100 µM |  |
| COc1cc(CNc2nc3ccccc3n2Cc2ccccc2)cc(CN2CCOCC2)c1O | 45 µM |  |
| C=C1CC23CCC4C(C)(C(=O)O)CCCC4(C)C2CCC1C3 (configuration not stated) | > 100 µM |  |
| Fc1ccc2c(c1)SC1Oc3ccccc3-c3c1c-2nn3-c1ccccc1 (configuration not stated) | > 100 µM |  |
| COc1cc(-c2nc3ccccc3[nH]2)ccc1OCC(=O)N=Nc1c(O)[nH]c2ccc(Cl)cc12 | 3.07 µM | 1.48 µM |
| CC1=C(C(=O)NNC(=O)C(N)=O)CC(C(=O)NNC(=O)C(N)=O)=C(C)N1 | > 100 µM |  |
| CC(=O)Nc1ccc(-c2nc3ccccc3s2)cc1Cl | > 100 µM |  |
| CSC1=Nc2c(c(C)c(-c3ccccc3)n2CCCCl)C2=NC(=O)CN12 | 24.3 µM | 9.77 µM |
| Brc1cccc(Nc2ncnc3sc4c(c23)CCC(Nc2cccc(Br)c2)C4)c1 (configuration not stated) | > 100 µM |  |
| COc1ccc2c(c1)CC[C@@H]1[C@@H]2CC[C@]2(C)c3[nH]ncc3C[C@@H]12 | > 50 µM | 26.4 µM |
| C=C1C(=O)CCC1C(=O)O (configuration not stated) | > 100 µM |  |
| CCOC(=O)CCSS(=O)(=O)C(F)(F)F | > 100 µM |  |
| COC(=O)/C(=N\N)C(C(=O)C(=O)Nc1cccc([N+](=O)[O-])c1)c1nc2ccc(C(=O)c3ccccc3)cc2[nH]c1=O (configuration not stated) | > 100 µM |  |
| CCCCCCCC/C=C\CCCCCCCC(=O)OC[C@]1(CO)CCC(=O)O1 | > 100 µM |  |
| O=C1NC2(CCCC2)/C(=N\O)C12CCCC2 | > 100 µM |  |
| c1ccc(CCCC2Sc3cccc4cccc(c34)S2)cc1 | > 100 µM |  |
| O=C(c1ccco1)c1ccccc1C(=O)c1ccco1 | > 100 µM |  |
| Nc1cc(S(=O)(=O)O)cc2cc(S(=O)(=O)O)c(N=Nc3ccc(-c4ccc(N=Nc5c(S(=O)(=O)O)cc6cc(S(=O)(=O)O)cc(N)c6c5O)cc4)cc3)c(O)c12 | > 100 µM |  |
| Clc1ccccc1-c1nc(-c2ccncc2)no1 | > 100 µM |  |
| CCCCCCCCCCCCOC1C(CNCC2OC3OC(C)(C)OC3C2NC(=O)Nc2ccc(C(F)(F)F)cc2)OC2OC(C)(C)OC21 (configuration not stated) | 15.6 µM | 7.44 µM |
